± gives the standard deviation of the averaged measurements. The list shows a part of the results.
Tested on: PfAP2-I AP2 domain 3 (GST-tagged)
Assay: gcPBM binding intensity (ln(normalized median fluorescence intensity)); higher = stronger DNA binding
Procedure, shortened: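 The binding buffer was 1× PBS containing 1% milk, 0.2 mg/ml BSA, 0.5% salmon testes DNA and 0.03% Triton X-100. In it, GST-tagged P. falciparum DNA-binding domains expressed in E. coli were applied for 1 h to an Agilent 4 × 180k array of primer-extended double-stranded 36-bp intergenic genomic probes plus negative controls. Binding intensity, read with Alexa488 anti-GST antibody and a 488 nm scan, is the highest Masliner-normalised natural-log median intensity across replicate spots of either probe orientation.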

Sequence | gcPBM binding intensity (ln)
ATCATTTTTAAAGGAACACACAAAAAAAATTAGAAT [CACACA_site1370] | 7.83 ± 0.73
CATATACATCCACATACACACATACACCCATACACA [CACACA_site5038] | 8.35 ± 0.057
TGAAAAGTAAAATACACACACATAATATAATTTATA [CACACA_site1989] | 7.7 ± 0.32
ATTATTTTTTTTGTTACACACATGACTTATTTTTAT [CACACA_site3228] | 8.01 ± 0.65
AAAATATGTATGTAAAGTACTAATATACAAATTTTT [XGTACX_site5186] | 7.54 ± 0.59
TTTTTTTTTTTTGATGCACACACCTGAACGAGTTAA [CACACA_site317] | 9.3 ± 0.22
TATTTTTATATATGACGTACTCTACAATTATTAATG [XGTACX_site5818] | 7.8 ± 0.51
TATATGAACTTATATACACACCATTTTTGTAAATCT [CACACA_site4547] | 7.62 ± 0.54
TATAATATATTATATACACACATTATGAAATCCACA [CACACA_site1330] | 7.85 ± 0.35
AACACGCGCAGACACACACACACACCCACATATATA [CACACA_site2205] | 8.18 ± 0.69
ATTTTGATGCATGGGTTGCACTAACTTTTGCCCAGA | 9.92 ± 0.11
AAACAATACTGATATTGTACATAATAAAAAAAAATA [XGTACX_site3330] | 7.94 ± 0.2
ATAAATATATTTTATAGTACATAAATATCAAAAAAA [XGTACX_site2334] | 7.74 ± 0.48
AGTATACAGATATATACACACATATTTATATTTATA [CACACA_site6394] | 7.5 ± 0.46
CATACATACCTATATACACACATATAAAATAATATA [CACACA_site7290] | 7.93 ± 0.36
TGTTATTATTTGTACACACACATATATATCCTTGTT [CACACA_site3616] | 8.1 ± 0.49
GGCAACATTTGAAACACACACACATACAAACAAACA [CACACA_site3307] | 8.8 ± 0.092
TCTATATGTTGATTCACACATAAAGAATAAATAAAA [CACACA_site6017] | 7.66 ± 0.61
TAAAAGGAACAAAATTGTACTTAAAAGACAAAGTTA [XGTACX_site7661] | 7.33 ± 0.34
ACACAAAAATAAAAATGTACAAATTAAAAAAAATGA [XGTACX_site2083] | 7.72 ± 0.54
TTTTTTTTTTTTTTGTCACACACCTTCATAAGAAAA [CACACA_site1166] | 8.25 ± 0.78
CACACCATATAATATATATATATGTATATATTTATA [CACACA_negctrl_site397] | 7.48 ± 0.44

Sequence | gcPBM binding intensity (ln)
TTTGTTCTATGGAGTTTAAAATGTAATATATATTAA [GTGCAC_negctrl_site151] | 7.62 ± 0.18
ATATATATTAATAGTTGTACTATTATAATATTACAA [XGTACX_site1213] | 7.7 ± 0.38
ATCCTGAACAGAATATGTATAAACAGAAGGAAACAA [CACACA_negctrl_site1805] | 7.92 ± 0.54
TAATAATAGAGACACACACACATTTTTAATAATACA [CACACA_site6691] | 7.84 ± 0.37
ATATATATATATATATATATATATATATTTATATAT [GTGCAC_negctrl_site180] | 9.15 ± 0.45
CTTTGTAGTTGGTCCACACACATATATGGAAGAATA [CACACA_site1280] | 8.12 ± 0.33
AGAAAAATTCTAAGAACATGCAAAAAAATAAAAAAA [TGCATGCA_site293] | 7.78 ± 0.86
TTAACATTTTAAAAATGTACATTTATATACATAAAT [XGTACX_site922] | 7.64 ± 0.36
AAAAAATAAATAAATATACACACCATATATATATTT [CACACA_site2854] | 7.58 ± 0.4
TCTAATGTAATGCATACACACAACTATCCATCAAAA [CACACA_site534] | 8.21 ± 0.38
AAAAAAAAAAAAAAAAGTACAAAAAAAAAAAAAAAA [XGTACX_site4549] | 8.68 ± 0.3
TATACCTATAGACACACACACATAAATAGATATATA [CACACA_site6748] | 7.87 ± 0.33
TACACGCATAGACACACACACACACGCATATAAATA [CACACA_site6446] | 8.26 ± 0.33
TTTTTTTTTTTAAATAGTACACATATATATATATAT [XGTACX_site6983] | 9.55 ± 0.22
AGTTTACACCTTGTGAGTACATACATACATATATAT [XGTACX_site8793] | 7.98 ± 0.51
TTTTATTTTTCTAGTAGTACTTCTTTTTATAATATA [XGTACX_site1181] | 7.92 ± 0.69
AATACAATATAAAGGTGTACATATATATATATATAT [XGTACX_site68] | 9.35 ± 0.33
AAAAAAAAAAAAAAAACACACACAACACCCATACCT [CACACA_site9208] | 8.89 ± 0.53
ATGTAGATAGATAGGGTGCTAAAAATAAGATTTATA [GTGCAC_site9602] | 9.6 ± 0.042
TACAAAATATTTTACACACACATATAAATACCTATA [CACACA_site7272] | 8.185 ± 0.021
TATATAATTATTTGATGTACACTACAATGTATTTGT [XGTACX_site7991] | 7.79 ± 0.28
TTATGTTCTTAATGCACACTTATAAGTATCTTATAA [CACACA_site1394] | 10.99 ± 0.028
